Reference: PubChem BioAssay AID760 (NMMLSC, 2007)
Screen size: about 190,000 compounds; about 360 (0.19%) were called active. Inconclusive results, whose numbers are uncertain, are shown with a selection of clear calls.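 Rule for the calls: active = GTP binding activity at least 20 points away from 100%, either lowered or raised; inconclusive = signal likely due to the compound's own green fluorescence; inactive = the rest.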

These compounds were tested against Ras-related protein Rab-2A (Canis lupus familiaris) (UniProt P61105) (assay: Rab2 wt fluorescent GTP binding changes, either direction – biochemical, dog, bead-based flow cytometry, multiplex, primary screen (AID 760;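 note: 0% = beads with excess unlabeled GTP and 100% = no-compound control corrected for plate trend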)). Conditions: GST-Rab2 wt beads, Bodipy-GTP binding, at 10 µM.

GTP binding activity, active:
CCOc1ccccc1NC(=O)CSc1ccc2nnc(-c3cccnc3)n2n1 64%
O=C(NCCc1c[nH]c2ccccc12)c1cccc(S(=O)(=O)Nc2ccccc2Cl)c1 79%
O=C(Oc1c(Br)cc(C(=S)N2CCOCC2)cc1Br)c1ccc(Cl)cc1 78%

GTP binding activity, inactive:
COc1ccc2c(C)cc3nncn3c2c1 89%
O=C(C1CCN(S(=O)(=O)c2cccs2)CC1)N(c1ccccn1)C1CCCCC1 100%
O=C(Nc1nnc(C2CC2)s1)C1=NN(C2CCS(=O)(=O)C2)C(=O)CC1 (stereo not drawn) 96%
Cc1nn(C)c(Sc2ccccc2N)c1[N+](=O)[O-] 103%
CC(C)CCN(C(=S)NC(=O)C1CCCCC1)c1c(N)n(Cc2ccccc2)c(=O)[nH]c1=O 100%
Cc1ccc2nc(Cl)c(/C=N/Nc3nc(C)cc(C)n3)c(=O)n2c1 95%
CC(=O)Nc1ccc(Nc2ccc3c4c(cc(=O)n3C)-c3ccccc3C(=O)c24)cc1 85%
CCC(/C=C1\Sc2ccc(OC)cc2N1CC)=C\c1sc2ccc(OC)cc2[n+]1CCCS(=O)(=O)[O-] 92%
COC(=O)CC1C(=O)NCCN1C(=O)CSc1nnnn1-c1ccc(Cl)cc1 (stereo not drawn) 95%
CC(C)Cn1c(N)c(-c2nc(C(C)C)c(C(=O)c3ccccc3F)s2)c(=O)n(C)c1=O 96%
CCCc1cc(=O)n2[nH]c(-c3ccc(OC)cc3)nc2n1 98%
COC(=O)c1c(NC(=O)CSc2nc3nc(C)cc(C)n3n2)sc(C)c1C 100%
Cc1c(Br)ccc(NC(=O)COc2ccccc2C(N)=O)c1C 102%
NCc1ccccc1COc1ccccc1 97%
CCN1C(=O)C2C(C1=O)N1C(c3cccs3)C3C(=O)N(CC)C(=O)C3N1C2c1cccs1 (stereo not drawn) 99%
O=C(O)CCc1nc2cc(Cl)ccc2n(Cc2ccccc2)c1=O 98%
CCN1C(=O)C(CC(=O)Nc2ccc(Br)cc2)N(CCCc2ccccc2)C1=S (stereo not drawn) 98%
NC(=O)CN(c1ccc([N+](=O)[O-])cc1)S(=O)(=O)c1ccccc1 99%
COc1ccc(N2C(=O)C3C4C=CC(C4)C3C2=O)nn1 (stereo not drawn) 99%
CN1C(=O)c2ccc(NC(=O)CCS(=O)(=O)c3ccccc3)cc2C1=O 96%
CC1=Nc2nc(N3CCCCC3)c(C#N)c3c4c(nc(c23)N1)N(c1ccc(C(C)C)cc1)C(=O)C4 92%
Cc1ccc(/C=N/NC(=O)CNC(=O)c2ccc(S(=O)(=O)N(C)C)cc2)o1 101%
CC(=O)Nc1ccc(SCC(=O)N(C)C2CCS(=O)(=O)C2)cc1 (stereo not drawn) 98%
CCCCC(CC)C(=O)Nc1ccc(C)c(O)c1 (stereo not drawn) 95%
CCc1cc2c(=O)n(CCC(C)C)c(=S)[nH]c2s1 98%
Clc1cccc(Cl)c1CSc1nnc(-c2sccc2-n2cccc2)o1 96%
CN(C)/C=C(\C#N)C(=O)Nc1ccc(O)cc1F 98%
COc1ccc(-c2cc(C#N)nc(N3CCN(C)CC3)n2)cc1 103%
CN1CCN(S(=O)(=O)c2cccc(C(=O)NCc3ccccc3Cl)c2)CC1 98%
CCOc1ccc(S(=O)(=O)Nc2ccc(O)c(Sc3ncn[nH]3)c2)cc1 99%
CC(C)(C)C(=O)N1CCC(O)(CS(=O)(=O)Cc2ccccc2)CC1 99%
COc1ccc(-c2cc(C(F)(F)F)nc(S(=O)(=O)CCCC(=O)Nc3cccnc3Cl)n2)cc1OC 96%

GTP binding activity, inconclusive:
Cc1c(NC(=O)/C(C#N)=C/c2ccc(-c3cccc(Cl)c3)o2)c(=O)n(-c2ccccc2)n1C 92%
Nc1ccc(C(=O)N/N=C\c2cc(N=Nc3cccc4ccccc34)ccc2O)cc1 82%
O=C(NCCO)c1ccc2nc(-c3ccco3)c(-c3ccco3)nc2c1 90%
COc1cccc(CN2CCN(Cc3cc(OC)c(OC)cc3[N+](=O)[O-])CC2)c1 94%
Cc1cccc(NC(=O)CN(C)S(=O)(=O)c2ccccc2)n1 106%
C/C(=N\NC(=O)c1cccnc1)c1cc2ccccc2o1 97%
O=S(=O)(c1ccc(F)cc1)n1ccc(-c2cccc(OCc3ccc(Cl)cc3Cl)c2)n1 106%
COc1cccc(CNC(=O)C2CCN(S(=O)(=O)c3cccs3)CC2)c1 91%
CC(=O)N[C@@H](Cc1c[nH]c2ccccc12)C(=O)OCC(=O)Nc1ccc(Cl)c(S(=O)(=O)N(C)C)c1 95%
O=C1c2cccc3cccc(c23)C(=O)N1CCN1CCN(C(=S)Nc2ccccc2)CC1 98%
COCCNC(=O)CN(c1ccc(OC)c(OC)c1)S(=O)(=O)c1ccc(C)cc1 102%
COc1ccc(/C=C/C(=O)Nc2ccc3nc4n(c(=O)c3c2)CCCC4)cc1OC 84%
Cc1nnc(SCC(=O)NCc2ccco2)n1-c1ccccc1 101%
CC(C)(C)c1nn2cnnc2n(/N=C/c2ccc(O)cc2)c1=O 103%
CCCCC(=O)NCCc1ccc(OC)cc1 106%
CCn1cc(Br)c(C(=O)Nc2ccc(OC)cc2)n1 101%
CC(C)CC1NC(=O)N(CC(=O)Nc2ccc3c(c2)CCC3)C1=O (stereo not drawn) 94%
CC(C)C(C(=O)NCC1CCCO1)N(Cc1ccco1)C(=O)CNS(=O)(=O)c1ccc(F)cc1 (stereo not drawn) 106%
COc1cc(C2CC(=O)Oc3c2c(=O)n(C)c2ccccc32)ccc1O (stereo not drawn) 93%
O=C(COc1cccc(Br)c1)N/N=C1\CCSC1 92%
Cc1cccc(C(=O)Nc2cccc(-c3ccc4nncn4n3)c2)c1 91%
CCOc1ccccc1N(CC(=O)NC1CCCCC1)S(C)(=O)=O 101%
Cc1ccc(NC(=S)Nc2ccc3cn[nH]c3c2)cc1C 95%
COc1ccc(Cc2nnc(NS(=O)(=O)c3ccc(Cl)cc3)s2)cc1OC 93%
Cc1ccc2nc(N3C(=O)C(O)=C(C(=O)c4ccco4)C3c3cccs3)sc2c1 (stereo not drawn) 93%
Cc1ccc2nc(Nc3ccccc3)c(/C=N/O)c(=O)n2c1 93%
OCCc1ccc(-c2ccc(Cl)cc2)o1 103%
Cc1ccc(NC(=O)NC(=O)CSc2n[nH]c(N)n2)c(C)c1 98%
CC(=O)NC1=NN(C(C)=O)C2(S1)C(=O)N(C(C)C)c1ccc(C)cc12 (stereo not drawn) 106%
Cc1ccc2c(c1)Oc1ccc([N+](=O)[O-])cc1C(=O)N2 93%
O=C(c1cc(Br)ccc1Cl)N1CCCC1 94%
COC(CNC(=O)c1cccnc1)OC 94%
COc1cc2[nH]c(=O)c(C(=O)NCCCN3CCCCC3)c(O)c2cc1OC 103%
O=C1c2ccccc2C(=O)N1c1cccnc1 92%
O=C(Nc1nn[nH]n1)c1cc(-c2ccc(Cl)c(Cl)c2Cl)nc2ccccc12 84%
COc1cc(OC)cc(C(=O)Nc2ccc(S(=O)(=O)Nc3nc(C)cc(C)n3)cc2)c1 92%
CC(C)(C)SCCNC(=O)c1ccc(Cl)c([N+](=O)[O-])c1 97%
O=C(NC1=NCCS1)c1ccc(Cl)s1 101%
CCCOc1ccc(N2C(=O)CC(N(CCc3ccc(OC)cc3)C(=O)/C=C/C(=O)O)C2=O)cc1 (stereo not drawn) 93%
Cc1cccn2c(=O)c(/C=N/O)c(N3CCOCC3)nc12 98%
Cc1cccc(C2C3=C(Nc4[nH]n(-c5ccccc5)c(=O)c42)c2ccccc2C3=O)c1 (stereo not drawn) 89%
COC(=O)c1cn(C(=O)c2cccc(C)c2)c2ccccc12 94%
CCCCOC(=O)Nc1nnc(CC)s1 104%
Cc1nonc1OCCNc1ccc([N+](=O)[O-])cc1[N+](=O)[O-] 442%
CN(CC(=O)O)S(=O)(=O)c1cccs1 105%
CCOc1ccc(C(=S)N2CCOCC2)cc1OC 100%
CC1Cc2nc(SCC(=O)Nc3ccc(F)cc3)n(C)c(=O)c2S1 (stereo not drawn) 93%
Cc1ccc(NC(=O)CN2C(=O)N/C(=C/c3ccc(C)o3)C2=O)cc1 116%
CCCCOCC1CC(CC#CCN2CCCCC2)C(=O)O1 (stereo not drawn) 82%
CC(=O)c1cccc(NC(=O)NCc2cccs2)c1 94%
OC(c1ccccc1)c1nccn1Cc1ccccc1 (stereo not drawn) 104%
c1ccc(CNc2nc(-c3cccs3)nc3ccccc23)cc1 101%
CC(/C=N/NC(=O)c1cccs1)=C\c1ccco1 88%
O=C(Nc1sc2c(c1-c1nc3ccccc3[nH]1)CCCC2)C1CC1 104%
CCOc1cc(/C=C2/NC(=O)NC2=O)cc([N+](=O)[O-])c1O 67%
CCC(C(=O)Nc1sc(C(N)=O)c(C)c1C(=O)OC)c1ccccc1 (stereo not drawn) 88%
N#Cc1cccc(NC(=O)c2ccccc2C(=O)O)c1 103%
COc1cc(/C=C/C(=O)Nc2ccc3nc4n(c(=O)c3c2)CCCC4)cc(OC)c1OC 72%
